Where two headings read alike, the source gives them in different places.
Assays:
[1] = system: A/California/07/2009 strain; details: in vivo, sc
[2] = system: B/Texas/2/2013 strain; assay: Transnasal administration to mice, serum IgG titer specific to B/Texas/2/2013 strain; type: in vivo, BALB/c mice
[3] = system: B/Texas/2/2013 strain; assay: Transnasal administration to mice, B/Texas/2/2013 strain-specific IgG1 and IgG2a titers (GMT); type: in vivo, BALB/c mice; details: vs adjuvant non-addition
[4] = system: B/Texas/2/2013 strain; details: in vivo, sc
[5] = system: A/California/07/2009 strain; assay: Transnasal administration to mice, serum IgG titer specific to A/California/07/2009 strain; type: in vivo, BALB/c mice
[6] = inactivated whole-virus antigens + 0.03 or 0.3 μg per dose, vs adjuvant non-addition
[7] = split antigens + 0.03 to 30 μg per dose, compared with adjuvant non-addition
[8] = split antigens + 0.03 to 30 μg per dose, compared with inactivated whole-virus antigens without adjuvant
[9] = inactivated whole-virus antigens + 30 μg, vs adjuvant non-addition group
[10] = split antigens + 30 μg, vs adjuvant non-addition

| SMILES | IgG titer for the A/California/07/2009 strain [1] | IgG titer, B/Texas/2/2013 strain [2, 6] | IgG titer for the B/Texas/2/2013 strain ([2]; split antigens + 0.03 to 3 μg, vs adjuvant non-addition, Mann-Whitney U test p<0.05) | antigen-specific IgG titer in blood, B/Texas/2/2013 strain [2, 7] | IgG titer, B/Texas/2/2013 strain [2, 8] | IgG2a titer (GMT), B/Texas/2/2013 strain-specific ([3]; inactivated whole-virus antigens + 0.3 μg) | IgG2a titer (GMT), B/Texas/2/2013 strain-specific ([3]; split antigens + 0.3 μg) | IgG titer for the B/Texas/2/2013 strain [4] | IgG titer, A/California/07/2009 strain [5, 6] | IgG titer for the A/California/07/2009 strain ([5]; split antigens + 0.03 to 0.3 μg, vs adjuvant non-addition, Mann-Whitney U test p<0.05) | antigen-specific IgG titer in blood, A/California/07/2009 strain [5, 7] | IgG titer, A/California/07/2009 strain [5, 8] | IgG titer for the B/Texas/2/2013 strain [2, 9] | IgG titer for the B/Texas/2/2013 strain [2, 10] | IgG titer for the A/California/07/2009 strain [5, 9] | IgG titer for the A/California/07/2009 strain [5, 10] |
| --- | --- | --- | --- | --- | --- | --- | --- | --- | --- | --- | --- | --- | --- | --- | --- | --- |
| NCCNC(=O)[C@H](CCCCNC(=O)[C@H](CCCCNC(=O)c1cc(O)c(O)c(O)c1)NC(=O)c1cc(O)c(O)c(O)c1)NC(=O)[C@H](CCCCNC(=O)c1cc(O)c(O)c(O)c1)NC(=O)c1cc(O)c(O)c(O)c1 [TGDK, N2,N6-bis[N2,N6-bis(3,4,5-trihydroxybenzoyl)-lysyl]-N-(2-aminoethyl)-lysinamide] | substantially the same level as in the single administration of the split antigens | increased | significantly higher | elevated | substantially the same level as in the inactivated whole-virus antigens | markedly elevated | markedly elevated | substantially the same level as in the single administration of the split antigens | increased | significantly higher | elevated | substantially the same level as in the inactivated whole-virus antigens | – | – | – | – |
| O=C(O)c1cc(O)c(O)c(O)c1 [gallic acid, reference compound] | substantially the same level as in the split antigen single administration group | – | – | – | – | – | – | substantially the same level as in the split antigen single administration group | – | – | – | – | decreased | significantly decreased | substantially the same level as in the adjuvant non-addition group | substantially the same level as in adjuvant non-addition |

From patent US11707521B2, “Mucosal adjuvant” (priority 2018, dated 2023)
